In the supplement of paper PMC10126150:
Sequences with one replicate were seen in a single cluster, so their values are uncertain.

Tested on: ATP
Assay: switch fluorescence ratio, 500 uM ATP over buffer (Cy3 cluster intensity, sum of 5 cycles each) (fold (ratio)); higher = stronger signal-on switching upon ATP binding; sequences stand for … in TCGTCGGCAGCGTCAGATGTGTATAAGAGACAGTTTTTTTTTTTTTTTTTTTTTTTTT…TC
Conditions: aptamer strand: ATP DNA aptamer (quencher-CACCTGGGGGAGTATTGCGGAGGAAGG + anchor), 100 nM annealed; ATP concentration: 500 uM; one replicate
Method in brief: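 Between each of five buffer/ATP cycles, the flow-cell was stripped with NaOH and re-annealed. Each cycle imaged Cy3-labelled switching-strand clusters, annealed to 100 nM quencher-labelled ATP aptamer on a modified Illumina MiSeq flow-cell, first in selection buffer and then after 15 min with 500 uM ATP at 22 °C. The fluorescence ratio is summed target-cycle over summed buffer-cycle Cy3 intensity per cluster, averaged per switch-domain sequence, with clusters outside 100-1000 RFU excluded.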
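Note: ATP exposure 15 min at 22 °C before imaging.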

Row | Sequence | switch fluorescence ratio
1 | CCTGTGTATT | 0.954
2 | CTGTGAGGCC | 0.882
3 | CTAGTCAGA | 0.963
4 | CGGACTCAAC | 1.56
5 | ATAAGTAGGA | 1.02
6 | ATAATACTTA | 1.03
7 | ACGGGAAATG | 1.81
8 | TAATATGA | 1
9 | GCGATAACTC | 2.48
10 | AATCTAATAA | 0.986
11 | TACGACCGCG | 1.13
12 | TCGAGGTACG | 0.96
13 | ATTATTGAGT | 0.994
14 | TCCGATAACG | 1.08
15 | GGATTTATAG | 0.997
16 | CAAAACATCT | 0.985
17 | TCCACTTGAG | 0.971
18 | CATATTGTTG | 1.01
19 | CAGACAGACA | 1.07
20 | GCCGTTTTCT | 0.983
21 | GCCGCTGAGG | 1.02
22 | TTACAGGCGG | 0.991
23 | GACGGGTAGG | 0.995
24 | GGTACCCCAA | 0.999
25 | ATTGCCGTGG | 0.965
26 | ACTGTCTCAA | 1.01

Row | Sequence | switch fluorescence ratio
27 | TATAGACGAG | 1.05
28 | GTGGTATCG | 0.966
29 | CAGGGCCAAG | 1.01
30 | AGCCACTTTT | 1.1
31 | TGTGATGTG | 0.997
32 | TGCGCAGG | 1.01
33 | CATTGTTAGA | 0.974
34 | TTAGTTTAGA | 1.01
35 | TCTCAAAGTC | 1.06
36 | TCTTGGACAC | 0.998
37 | CGAAGTGCCA | 1.04
38 | CTAATCACGT | 1.02
39 | TCTTGGTTGT | 0.979
40 | TTGAGGCTT | 1.02
41 | TATCATCAAA | 1.03
42 | GTTTCCACTG | 0.943
43 | TAGTCTGACC | 1.03
44 | GCGCGTGGTG | 1.02
45 | GTCTGATCTC | 1.03
46 | GTATGGCTTA | 1.02
47 | ACACGGAGGG | 1.02
48 | GGAAGGCGT | 1.03
49 | TCGTGTTCT | 0.986
50 | TGAGGGTCA | 0.994
51 | AGTACGTCAA | 1.35
52 | AGGGCTACTG | 0.926

Row | Sequence | switch fluorescence ratio
53 | TCTGCCAGTA | 0.989
54 | CCATCATCGG | 1.01
55 | ACCGACGGT | 1.08
56 | GCGAGCCCCG | 1.02
57 | AGATAGGTAC | 1.01
58 | ATATTCGGGA | 1
59 | AATCACTGTT | 1.04
60 | CTAGGCGCTT | 1.03
61 | GGGCAAGTTG | 1.02
62 | GAGCCAAAAG | 0.993
63 | CCATCGCCGA | 1.09
64 | TCGGTCTTGA | 0.969
65 | TGGTTCCTCC | 1.33
66 | TACCTGACGG | 1.42
67 | ACTTAACTAT | 1.11
68 | ACTTGTCCGT | 1.03
69 | TTGGCGATAA | 1.23
70 | TTACGTAAAC | 1.56
71 | TTTCTTCAGG | 1.14
72 | TTGGAATCTT | 1.02
73 | TAGCTCGTC | 1.1
74 | GATCAAACTA | 1.01
75 | ACACGGACGC | 1.21
76 | TGCAGTTGGC | 1.04
77 | CAAGAGCAAG | 1.43
78 | GGTCCATTGC | 1.01

Row | Sequence | switch fluorescence ratio
79 | TGAATATATA | 1.01
80 | TTCGAGGGCA | 1
81 | CAGGAATGTT | 1.03
82 | GCTATGCATT | 1.02
83 | CAGTACCTAG | 1.05
84 | GTGCAGTTGG | 0.993
85 | GTTGTTCTTG | 0.978
86 | GCCTTGTGTT | 0.988
87 | GAAGTCGGTC | 1.05
88 | TTTCTTCGAT | 1.02
89 | GTGTGACATT | 0.978
90 | TCGGTTGGGG | 1
91 | GCTCACGGCA | 1.03
92 | CTAGCCCCTA | 1.02
93 | GTCCTCCCTT | 1.23
94 | CGGGGTATG | 0.96
95 | TTTCGATTTA | 0.944
96 | TGAATTGGCG | 0.979
97 | GGCCCTAGGG | 0.996
98 | CGAGAGTCTT | 1.01
99 | TATTTCCCTA | 0.988
100 | CGGTATTGT | 0.935
101 | TATCTGCTTA | 1.03
102 | TCTGAGACAG | 1.01
103 | AAAATGGCCG | 0.984
104 | TAGGGCTTTG | 1.01

Row | Sequence | switch fluorescence ratio
105 | ATTGCTGACA | 0.995
106 | GGGTGCACTT | 0.982
107 | GTATTAGTCC | 0.96
108 | GCGCAATGGT | 2.39
109 | ACATTTGGCT | 1.04
110 | TCTTCGCGTT | 0.989
111 | GAAAATAGGG | 0.989
112 | GGGTTCATCA | 0.998
113 | AATATAGTCG | 0.938
114 | TTTTAACTGA | 1.05
115 | AGTTCGTGCT | 1
116 | TATGCTTTCA | 1.03
117 | CAATATTCGT | 1
118 | TTAAAGAGCA | 0.974
119 | TTGTGGTTCT | 0.973
120 | CAATTCTGG | 0.985
121 | CGCTCCTAGG | 1.36
122 | TCGATGACGA | 1.05
123 | GGCGCAAGTG | 0.993
124 | GATAGCTTCA | 1.07
125 | CACTGAACGT | 1.17
126 | AACGTAAAAA | 1.14
127 | ATCTAAAATG | 1.02
128 | ACTCTATGTC | 1.03
129 | CGCGCGTCCT | 1.04
130 | AAGAAATCCT | 1.32

Row | Sequence | switch fluorescence ratio
131 | GGCTGGGGAG | 0.976
132 | AGTCGGGTCG | 1.22
133 | TTAGGCATTT | 1.07
134 | TGACTTTTCC | 1.16
135 | ACCGCTGACT | 1.36
136 | CCTGCCGTGC | 1.58
137 | CATGATAACT | 0.99
138 | ATACATATAT | 1.01
139 | CGCAAACCCG | 1.63
140 | CTCTGTTCAC | 1.23
141 | CGAAACTTA | 0.991
142 | ATTAAAACAG | 1.04
143 | GTTTCGCTAT | 1.19
144 | TGACAGTAGG | 0.974
145 | AGTCGACTCG | 0.997
146 | CGGAATAGAG | 0.98
147 | TGCTAAGAT | 0.962
148 | CTTGTAATAG | 1.4
149 | TTATTAGCGG | 0.987
150 | GAAATCCCGG | 0.909
151 | GAGTTGGAAA | 0.999
152 | GGGGTGTGCA | 0.993
153 | AGGGATGCTC | 0.994
